Measurements reported in patent US20220402862A1 (Intellia Therapeutics, Inc., priority 2019, published 2022).
The name of at least one read-out is uncertain.

Test system: mouse TTR gene
Assay: In vivo editing in mouse liver, sgRNA targeting TTR (G282 or G502), % indel by NGS
Set-up: species or system CD-1 female mice
Details: guide G282 (mouse TTR gene), LNP 50/9/38/3 amine lipid/DSPC/cholesterol/PEG-2k-DMG, N/P about 6, NGS, experiments 1-10, 16-20
Description: CD-1 female mice ranging from 6-10 weeks of age were used in each study. Animals were weighed and grouped according to body weight for preparing dosing solutions based on group average weight. LNPs were dosed via the lateral tail vein in a volume of 0.2 mL per animal (approximately 10 mL per kilogram body weight). The animals were periodically observed for adverse effects for at least 24 hours post dose. For studies measuring in vivo editing in liver, CD-1 female mice were dosed at 0.1 mg/kg unless otherwise noted. Animals were euthanized at 6 or 7 days by ex sanguination via cardiac puncture under isoflurane anesthesia. Liver tissue was collected from each animal for DNA extraction and analysis. Blood was collected into serum separator tubes or into tubes containing buffered sodium citrate for plasma as described herein. Cohorts of mice were measured for editing by Next-Generation Sequencing (NGS).
In brief, to quantitatively determine the efficiency of editing at the target location in the genome, genomic DNA was isolated and deep sequencing was utilized to identify the presence of insertions and deletions introduced by gene editing.
PCR primers were designed around the target site (e.g., within B2M), and the genomic area of interest was amplified. Additional PCR was performed according to the manufacturer's protocols (Illumina) to add the necessary chemistry for sequencing. The amplicons were sequenced on an Illumina MiSeq instrument. The reads were aligned to the mouse or rat reference genome (e.g., GRCm38) after eliminating those having low quality scores. The resulting files containing the reads were mapped to the reference genome (BAM files), where reads that overlapped the target region of interest were selected and the number of wild type reads versus the number of reads which contain an insertion, substitution, or deletion was calculated.
The editing percentage (e.g., the “indel efficiency” or “percent indels”) was defined as the total number of sequence reads with insertions or deletions over the total number of sequence reads, including wild type.
We assessed in vivo editing efficiency for materials delivered with formulations including various amine lipid compounds. Editing was measured using either G282 (SEQ ID No: 1) which targets the mouse TTR gene or G650 (SEQ ID No. 2) which targets the mouse B2M gene. Lipids described above were assessed for efficacy through in vivo editing experiments. LNPs were formulated at a 1:1 or 1:1.3 w/w ratio of sgRNA to Cas9 mRNA, and at an N/P ratio of about 6. Molar concentrations of lipids in the lipid component of the LNPs are used at mol % amine lipid/DSPC/cholesterol/PEG-2k-DMG of 50/9/38/3. The final LNPs were characterized to determine the encapsulation efficiency, polydispersity index, and average particle size according to the analytical methods provided above. Analysis of average particle size, polydispersity (PDI), total RNA content and encapsulation efficiency of RNA are shown in Table 2.
To assess whether the editing was dose responsive, experiments were performed in vivo at various LNP dose levels. Cas9 mRNA of Example 120 was formulated as LNPs with an sgRNA targeting TTR (G282, SEQ ID NO: 1; or G502, SEQ ID NO: 4).
We assessed in vivo delivery by measuring editing efficiency for materials delivered with formulations that included various amine lipid compounds. Cas9 mRNA (SEQ ID NO: 6) was formulated as LNPs with an sgRNA targetting the TTR mouse gene (SEQ ID NO: 4). LNPs were formulated at a 1:2 w/w ratio of sgRNA to Cas9 mRNA, and at an N/P ratio of about 6. Molar concentrations of lipids in the lipid component of the LNPs are used at mol % amine lipid/DSPC/cholesterol/PEG-2k-DMG of 50/9/38/3. The final LNPs compositions were characterized and analyzed as described in Example 120. Analysis of average particle size, polydispersity (PDI), total RNA content and encapsulation efficiency of RNA are shown in Table 6.

SMILES	Editing Mean % Indel
CCCCCCCCCCOC(=O)CCCCCCCC(=O)OCC(COC(=O)CCC(OCCCCCCCC)OCCCCCCCC)COC(=O)OCC1CCCN(CC)C1 (centres unmarked) [Compound 72, 1-(3-((4,4-bis(octyloxy)butanoyl)oxy)-2-(((((1-ethylpiperidin-3-yl)methoxy)carbonyl)oxy)methyl)propyl) 9-decyl nonanedioate]	42.4%
CCCCCCCCCCOC(=O)CCCCCCCC(=O)OCC(COC(=O)CCC(OCCCCCCCC)OCCCCCCCC)COC(=O)NCCN(CC)CC (centres unmarked) [Compound 73, 1-(3-((4,4-bis(octyloxy)butanoyl)oxy)-2-((((2-(diethylamino)ethyl)carbamoyl)oxy)methyl)propyl) 9-decyl nonanedioate]	41.6%
CCCCCCCCCCOC(=O)CCCCCCCC(=O)OCC(COC(=O)CCC(OCCCCCCCC)OCCCCCCCC)COC(=O)OCCC1CCCN1C (centres unmarked) [Compound 74, 1-(3-((4,4-bis(octyloxy)butanoyl)oxy)-2-((((2-(1-methylpyrrolidin-2-yl)ethoxy)carbonyl)oxy)methyl)propyl) 9-decyl nonanedioate]	42.8%
CCCCCCCCCCOC(=O)CCCCCCCC(=O)OCC(COC(=O)CCCN(CC)CC)COC(=O)CCC(OCCCCCCCC)OCCCCCCCC (centres unmarked) [Compound 75, 1-(3-((4,4-bis(octyloxy)butanoyl)oxy)-2-(((4-(diethylamino)butanoyl)oxy)methyl)propyl) 9-decyl nonanedioate]	25.4%
CCCCCCCCCCOC(=O)CCCCCCCC(=O)OCC(COC(=O)CCCCCC(=O)OC(CCCCCCCC)CCCCCCCC)COC(=O)OCCCN(CC)CC (centres unmarked) [Compound 76, 1-decyl 9-(3-(((3-(diethylamino)propoxy)carbonyl)oxy)-2-(((7-(heptadecan-9-yloxy)-7-oxoheptanoyl)oxy)methyl)propyl) nonanedioate]	7.0%
CCCCCCCCCCOC(=O)CCCCCCCC(=O)OCC(COC(=O)CCCC(=O)OC(CCCCCCCC)CCCCCCCC)COC(=O)OCCCN(CC)CC (centres unmarked) [Compound 77, 1-decyl 9-(3-(((3-(diethylamino)propoxy)carbonyl)oxy)-2-(((5-(heptadecan-9-yloxy)-5-oxopentanoyl)oxy)methyl)propyl) nonanedioate]	30.4%
CCCCCCCCCCOC(=O)CCCCCCCC(=O)OCC(COC(=O)CCC(OCCCCCCCCC)OCCCCCCCCC)COC(=O)OCCCN(CC)CC (centres unmarked) [Compound 79, 1-(3-((4,4-bis(nonyloxy)butanoyl)oxy)-2-((((3-(diethylamino)propoxy)carbonyl)oxy)methyl)propyl) 9-decyl nonanedioate]	40.3%
CCCCCCCCCCOC(=O)CCCCCCCC(=O)OCC(COC(=O)CCCCCC(=O)OC(CCCCCCCC)CCCCCCCC)COC(=O)OCCC1CCCN1C (centres unmarked) [Compound 80, 1-decyl 9-(3-((7-(heptadecan-9-yloxy)-7-oxoheptanoyl)oxy)-2-((((2-(1-methylpyrrolidin-2-yl)ethoxy)carbonyl)oxy)methyl)propyl) nonanedioate]	10.3%
CCCCCCCCCCOC(=O)CCCCCCCC(=O)OCC(COC(=O)CCCCCC(=O)OC(CCCCCCCC)CCCCCCCC)COC(=O)CCCN(C)C (centres unmarked) [Compound 82, 1-decyl 9-(3-((4-(dimethylamino)butanoyl)oxy)-2-(((7-(heptadecan-9-yloxy)-7-oxoheptanoyl)oxy)methyl)propyl) nonanedioate]	5.0%
CCCCCC/C=C\COC(=O)CCCCCCCC(=O)OCC(COC(=O)CCC(OCCCCCCCCC)OCCCCCCCCC)COC(=O)OCCCN(CC)CC (centres unmarked) [Compound 83, (Z)-1-(3-((4,4-bis(nonyloxy)butanoyl)oxy)-2-((((3-(diethylamino)propoxy)carbonyl)oxy)methyl)propyl) 9-(non-2-en-1-yl) nonanedioate]	26.4%
CCCCCC/C=C\COC(=O)CCCCCCCC(=O)OCC(COC(=O)CCC(OCCCCCCC)OCCCCCCC)COC(=O)OCCCN(CC)CC (centres unmarked) [Compound 84, (Z)-1-(3-((4,4-bis(heptyloxy)butanoyl)oxy)-2-((((3-(diethylamino)propoxy)carbonyl)oxy)methyl)propyl) 9-(non-2-en-1-yl) nonanedioate]	13.3%
CCCCCC/C=C\COC(=O)CCCCCCCC(=O)OCC(COC(=O)CCCCCC(=O)OC(CCCCCCCC)CCCCCCCC)COC(=O)OCCCN(CC)CC (centres unmarked) [Compound 85, (Z)-1-(3-(((3-(diethylamino)propoxy)carbonyl)oxy)-2-(((7-(heptadecan-9-yloxy)-7-oxoheptanoyl)oxy)methyl)propyl) 9-(non-2-en-1-yl) nonanedioate]	3.5%
CCCCCC/C=C\COC(=O)CCCCCCCC(=O)OCC(COC(=O)CCCC(=O)OC(CCCCCCCC)CCCCCCCC)COC(=O)OCCCN(CC)CC (centres unmarked) [Compound 86, (Z)-1-(3-(((3-(diethylamino)propoxy)carbonyl)oxy)-2-(((5-(heptadecan-9-yloxy)-5-oxopentanoyl)oxy)methyl)propyl) 9-(non-2-en-1-yl) nonanedioate]	22.6%
CCCCCCCCCCOC(=O)CCCCCCCC(=O)OCC(COC(=O)CCCC(=O)OC(CCCCCCCC)CCCCCCCC)COC(=O)OCCC1CCCN1C (centres unmarked) [Compound 87, 1-decyl 9-(3-((5-(heptadecan-9-yloxy)-5-oxopentanoyl)oxy)-2-((((2-(1-methylpyrrolidin-2-yl)ethoxy)carbonyl)oxy)methyl)propyl) nonanedioate]	26.2%
CCCCCCCCCCOC(=O)CCCCCCCC(=O)OCC(COC(=O)CCCC(=O)OC(CCCCCCCC)CCCCCCCC)COC(=O)NCCN(CC)CC (centres unmarked) [Compound 88, 1-decyl 9-(3-(((2-(diethylamino)ethyl)carbamoyl)oxy)-2-(((5-(heptadecan-9-yloxy)-5-oxopentanoyl)oxy)methyl)propyl) nonanedioate]	32.1%
CCCCCCCCCCOC(=O)CCCCCCCC(=O)OCC(COC(=O)CCCC(=O)OC(CCCCCCCC)CCCCCCCC)COC(=O)CCCN(C)C (centres unmarked) [Compound 89, 1-decyl 9-(3-((4-(dimethylamino)butanoyl)oxy)-2-(((5-(heptadecan-9-yloxy)-5-oxopentanoyl)oxy)methyl)propyl) nonanedioate]	9.2%
CCCCCCCCCCOC(=O)CCCCCCCCCC(=O)OCC(COC(=O)CCC(OCCCCCCCC)OCCCCCCCC)COC(=O)OCCCN(CC)CC (centres unmarked) [Compound 90, 1-(3-((4,4-bis(octyloxy)butanoyl)oxy)-2-((((3-(diethylamino)propoxy)carbonyl)oxy)methyl)propyl) 11-decyl undecanedioate]	26.0%
CCCCCCCCCCOC(=O)CCCCCCCCCCCC(=O)OCC(COC(=O)CCC(OCCCCCCCC)OCCCCCCCC)COC(=O)OCCCN(CC)CC (centres unmarked) [Compound 91, 1-(3-((4,4-bis(octyloxy)butanoyl)oxy)-2-((((3-(diethylamino)propoxy)carbonyl)oxy)methyl)propyl) 13-decyl tridecanedioate]	13.9%
CCCCCCCCCCCCOC(=O)CCCCCCCC(=O)OCC(COC(=O)CCC(OCCCCCCCC)OCCCCCCCC)COC(=O)OCCCN(CC)CC (centres unmarked) [Compound 92, 1-(3-((4,4-bis(octyloxy)butanoyl)oxy)-2-((((3-(diethylamino)propoxy)carbonyl)oxy)methyl)propyl) 9-dodecyl nonanedioate]	26.6%
CCCCCCCCCCCCCCOC(=O)CCCCCCCC(=O)OCC(COC(=O)CCC(OCCCCCCCC)OCCCCCCCC)COC(=O)OCCCN(CC)CC (centres unmarked) [Compound 93, 1-(3-((4,4-bis(octyloxy)butanoyl)oxy)-2-((((3-(diethylamino)propoxy)carbonyl)oxy)methyl)propyl) 9-tetradecyl nonanedioate]	15.0%
